The results in this text go back to the supplement of paper PMC11417369.

± gives the standard deviation of the averaged measurements. The list shows a part of the results.

The test system of the assay is PfAP2-LT AP2 domain (GST-tagged). The assay can be described thus: gcPBM binding intensity (ln(normalized median fluorescence intensity)); higher = stronger DNA binding. The method, boiled down:
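DNA-binding domains from P. falciparum, fused to GST and produced in E. coli, were put on an Agilent 4 × 180k double-stranded probe array for 1 h in 1× PBS holding 1% milk, 0.2 mg/ml BSA, 0.5% salmon testes DNA and 0.03% Triton X-100. Probes were primer-extended, 36 bp long and drawn from intergenic genomic regions, with negative controls included. After Alexa488 anti-GST antibody detection and a 488 nm scan, binding intensity was set as the highest Masliner-normalised natural-log median intensity across replicate spots of either probe orientation.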
“ATATATTTTTTGAATACACACATATTATATGTAATA [CACACA_site1256]”: the “gcPBM binding intensity (ln)” value is 8.8 ± 0.31.

“ATTATATACATATATATACACACGTAGTTTCTATTT [CACACA_site8697]”: the “gcPBM binding intensity (ln)” value was 8.97 ± 0.38. With “TACTTTTTATTTTCTTGTACTTAATTGTCCAGATTT [XGTACX_site4334]” the figure was 8.75 ± 0.45; with “ATATATATATATAAATGTACATTTTTCAATAGTTTT [XGTACX_site7449]”, 9.18 ± 0.15; with “TATAAATAAATAGATACACACATATATATAAATACA [CACACA_site155]”, 9.11 ± 0.46.

As for “CTTATTATTATATGGGTGCTCATATTTTTCTTTTTT [GTGCAC_site9723]”, the “gcPBM binding intensity (ln)” value amounted to 8.87 ± 0.48. Under “ACAAACATTAGGGAAGCATGCAATATTTTTTTACAT [TGCATGCA_site372]” stands 8.97 ± 0.37; under “TGTAGATTTTGTAACACACACATATATATACATATA [CACACA_site2405]”, 9.13 ± 0.46; under “ATTCTTATTTAAAGGTGTACTCTTAAACAGATTTTA [XGTACX_site3526]”, 8.52 ± 0.37.

In the case of “CACCCCCACAGACACACACACACACCCACATATATA [CACACA_site365]”, the “gcPBM binding intensity (ln)” value worked out at 10.54 ± 0.035. With “ATTTTAATATAAAATACACACTACTATTATAAATAT [CACACA_site4917]” the figure was 8.61 ± 0.4; with “GTACACATATAGTAATAATTTTATTATATTTTTTTG [CACACA_negctrl_site843]”, 8.56 ± 0.47; with GGTCTTCTTAATATACTGCACTGTATACGTATATAA, 9.09 ± 0.4. Under “AGATTTAAATTTATATGTACATAATATGGGCGTATA [XGTACX_site6631]” stands 8.7 ± 0.39; under “TTCATAAAATGATATTGTACAAATAAATAATAGTAT [XGTACX_site819]”, 8.89 ± 0.46. Under “GCTTATATAAAAAGTTGTACAACCGAATCTTTTACA [XGTACX_site2119]” stands 8.74 ± 0.45; under “AAAAAAAAAAAGCACACACACATATGAGTATATATA [CACACA_site4683]”, 9.55 ± 0.27; under “TAATATCATTTATGTAGTACTATAACAAGAACTATA [XGTACX_site3618]”, 8.48 ± 0.37. As for “AATGTAAAAGTAAACACACACATATATAAATACATA [CACACA_site5386]”, the “gcPBM binding intensity (ln)” value was 9.46 ± 0.3.

For “TACACAAGCAGACACACACACATATATATATATATA [CACACA_site1270]”, the “gcPBM binding intensity (ln)” value came out at 10.42 ± 0.071. Under “GTACATAGATTGTACATACACACCTATATAAATATC [CACACA_site3225]” stands 9.13 ± 0.39; under “AATATATGGTTCCATGATATTAAATTCAATTTAATG [CACACA_negctrl_site605]”, 8.47 ± 0.35; under “TTTTTTTTGTTCTATACAATTATAAAAATAAAATAT [XGTACX_negctrl_site53]”, 8.19 ± 0.34. With “GTATATATATATGTATATATTTTATTTTATTTTTAT [CACACA_negctrl_site1439]” the figure was 8.71 ± 0.45. With “TATATATATAGACACACACACACATATATATATATA [CACACA_site9366]” the figure was 10.02 ± 0.042. As to “AGTTGTTTTAATAATGCATGTTATTTTATTTTAATA [TGCATGCA_site168]”, the “gcPBM binding intensity (ln)” value is 8.79 ± 0.45.

Take “TAGATATATAGACACACACACATTAATACCTATATT [CACACA_site7605]”: the “gcPBM binding intensity (ln)” value turned out to be 9.64 ± 0.42. With “TGTCATTTAATTTTTTGTACGAAAAAAACATATAAA [XGTACX_site4952]” the figure was 8.28 ± 0.3. Regarding “ACATATAATATATAATGTACAAAATTGTTAACAATA [XGTACX_site3798]”, the “gcPBM binding intensity (ln)” value came to 8.96 ± 0.4. As for “GAAAGGATATATATATATATATATATAATACATTTC [GTGCAC_negctrl_site677]”, the “gcPBM binding intensity (ln)” value was 9.28 ± 0.47. Under “TATATATACATACATACACACATATATATATATATT [CACACA_site4110]” stands 9.295 ± 0.078; under “AATTAAAAAAAATACACACACACATACACATATATA [CACACA_site3298]”, 9.94 ± 0.24; under “CCAAAAAAAAAAAAAAGTACATAAAAACAAGAGAAT [XGTACX_site3037]”, 8.94 ± 0.54. Under “CGTATTTATATAATTACACACCATATTATAATTATT [CACACA_site3760]” stands 8.84 ± 0.44; under “AAGAGAAAAATATATACACACACATAAATATATACA [CACACA_site8573]”, 9.57 ± 0.32. On to “AAGGGGTAAAGAAAAACACACAAAAAATAAAAATAT [CACACA_site361]”, for which the “gcPBM binding intensity (ln)” value is 9.04 ± 0.67. Under “GATGAAAATAGAAATACACACTAAAAAATAAAATTA [CACACA_site4764]” stands 8.85 ± 0.52; under “GAAATAATTCGATGTGCATGTAACGTTTCCCCAAAG [TGCATGCA_site122]”, 8.93 ± 0.3; under TGCATACTTTTGTAAGTGCATAAAATCGTACCATGC, 8.63 ± 0.26. With “TTATTTTTCCGGAATAGTACATAGACGCAGATATAA [XGTACX_site6356]” the figure was 8.78 ± 0.38. Under “TAGAAGCATGGACACACACACATACATACCCATACA [CACACA_site4916]” stands 10 ± 0.45. Turning to “CTCAATGTTTGCGATACATGCAAAAATTTTTAGAAT [TGCATGCA_site165]”, the “gcPBM binding intensity (ln)” value stood at 8.64 ± 0.47. Under “TACATTTCATTGTAATCATAAAAAATAAAGAAAAAA [XGTACX_negctrl_site542]” stands 8.27 ± 0.42; under “TCTATATCTTTCAACACACAAATTTTTTTTTCCATC [CACACA_site4238]”, 8.78 ± 0.52. With “AAAAAAAAAAAAAAAGTGCACAGTCGTTTTAAAAAA [GTGCAC_site9848]” the figure was 8.62 ± 0.7.
